# ChEMBL document CHEMBL1201862, “PubChem BioAssay data set” (2004)
#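 Interpolation was linear, between the two tested concentrations surrounding the appropriate level; five concentrations were tested over 48 hours in 96-well plates. GI50 = concentration required for 50% inhibition of growth.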 The source made the active and inactive calls. Cut-off read from the data, not from the text of the source: active = GI50 up to about 1.1 µM and inactive = higher.
# Test system: NCI-H322M
# Experiment: growth of human tumour cells (NCI), 48 h
row,SMILES,GI50
1,c1ccc(-c2csc3ncn4cnnc4c23)cc1,inactive: > 10 µM
2,COc1cc(NCCC(=O)O)c2ncccc2c1,inactive: > 100 µM
3,COc1ccc(C2c3cc4c(cc3OC(N3CCOCC3)C2C)OCO4)c(OC)c1 (configuration not stated),inactive: 11.1 µM
4,CC(=O)OC(C)C1C2=C(C(=O)CC1(C)O)C(=O)c1c(ccc(-c3ccc4c(c3O)C(=O)C3=C(C4=O)C(C(C)OC(C)=O)C(C)(O)CC3=O)c1O)C2=O (configuration not stated),inactive: 12.5 µM
5,COc1ccc(C(=O)/C=C/c2ccc3c(c2)OCO3)c(OCc2ccccc2)c1,inactive: 48.9 µM
6,CC(=O)OCC(OC(C)=O)C(OC(C)=O)C(OC(C)=O)C(=O)CNn1c(-c2ccccc2Cl)nc2ccc(Br)cc2c1=O (configuration not stated),inactive: > 100 µM
7,O=S(=O)(Nc1nc2ccccc2nc1Nc1cccc2ccccc12)c1ccccc1,inactive: 25.8 µM
8,CC1=NN2C(=N)/C(=C/c3ccco3)C(=O)N=C2S1,inactive: > 100 µM
9,O=[N+]([O-])c1nccn1COCCBr,inactive: > 100 µM
10,Cc1c(-c2nc3ccccc3[nH]2)c(=O)n(-c2ccccc2)n1C,inactive: > 100 µM
11,COc1ccc(C2=NN(c3ccccc3)C[N+](c3ccc(C)cc3)=N2)cc1,inactive: 29.5 µM
12,CC(C)C(Sc1nc(-c2ccccc2)c(-c2ccccc2)[nH]1)C(=O)NN (configuration not stated),inactive: 76.9 µM
13,CN1C(=O)n2c(nc3ccccc32)C(N=[N+]=[N-])(N=[N+]=[N-])C1=O (configuration not stated),inactive: > 100 µM
14,O=C(Cc1c(C(=O)Nc2ccccc2)sc(C(=O)Nc2ccccc2)c1CC(=O)Nc1ccccc1)Nc1ccccc1,inactive: 2.28 µM
15,COc1ccc2c(C)cc(N/N=C/c3ccc(C)s3)nc2c1,inactive: 6.37 µM
16,Nc1ncn2c(n1)nc1ccccc12,inactive: > 100 µM
17,COc1nc2[nH]ccc2c(=O)[nH]1,inactive: > 100 µM
18,CCOC(=O)CCC1(CCC(=O)OCC)CCCCCCCCC(CCC(=O)OCC)(CCC(=O)OCC)C(=O)C1=O,inactive: > 100 µM
19,CC(C)CCCC(C)[C@H]1CCC2[C@@H]3CCC4Cc5nc6c(nc5C[C@]4(C)C3CC[C@@]21C)CC1CC[C@@H]2C(CC[C@@]3(C)C2CC[C@@H]3C(C)CCCC(C)C)[C@@]1(C)C6 (some centres not stated),inactive: > 100 µM
20,O=C(NCCC(F)(F)C(F)(F)C(F)(F)C(F)(F)F)NC1OC(CO)C(O)C(O)C1O (configuration not stated),inactive: > 100 µM
21,CN(C)CCNC(=O)c1cccc2[nH]c(-c3ccc(Cl)cc3)nc12,inactive: 10.3 µM
22,O=c1[nH]c(=S)[nH]cc1CN1CCOCC1,inactive: > 100 µM
23,CC(C)NCCNC(=O)c1ccccc1Nc1c(Cl)cccc1Cl,inactive: 10.5 µM

row,SMILES,GI50
1,CCCCCCCCCCCC(=O)OCC1OC(n2cc(F)c(=O)[nH]c2=O)C(N)C(O)C1O (configuration not stated),inactive: > 100 µM
2,COc1ccc(/C=C/c2cnnc3ccccc23)cc1OC,inactive: > 10 µM
3,CC(C)(c1cn(Cc2ccccc2)c2ccccc12)c1cn(Cc2ccccc2)c2ccccc12,inactive: > 100 µM
4,O=C(/C=C\c1ccc(/C=C/C(=O)Nc2cccc(C3=NCCCN3)c2)cc1)Nc1cccc(C2=NCCCN2)c1,inactive: > 100 µM
5,O=c1c(-c2nc3ccccc3c3ccccc3c2=O)nc2ccccc2c2ccccc12,inactive: > 100 µM
6,Cc1c(-c2ccccc2)[nH]c2cc(Cl)ccc2c1=O,inactive: > 100 µM
7,[N-]=[N+]=NC1(c2ccccc2)C(=O)c2cccc3c4ccccc4n(c23)C1=O (configuration not stated),inactive: > 100 µM
8,CCOC(=O)/C=C(\C(=O)OCC)n1cc(Cl)c(=O)n(CC(=O)OCC)c1=O,inactive: 18.7 µM
9,COc1ccc(C2CC(C)(O)Oc3cc4c(cc32)OCO4)cc1 (configuration not stated),inactive: 46.2 µM
10,COc1ccc2c(c1)CCCN1Cc3ccccc3CC21 (configuration not stated),inactive: > 100 µM
11,N#CCCN(CCC#N)c1ccc(C(=N/c2ccc(F)cc2)/N=N/c2ccc(Cl)cc2)cc1,inactive: > 100 µM
12,O=C1NC(N2CCCC(CO)C2)=N/C1=C\c1ccc(Cl)cc1 (configuration not stated),inactive: > 100 µM
13,CC(C)(C)OC(=O)N1CCc2[nH][nH]c(=O)c2C1,inactive: > 100 µM
14,CC(=O)O[C@H]1CC[C@@]2(C)C(=CC[C@@H]3[C@@H]2CC[C@]2(C)C(=N/O)/C(=C\c4ccccc4)C[C@@H]32)C1,inactive: 17.4 µM
15,O=C(O)C(C(=O)C(=O)C(C(=O)O)c1ccc(Cl)cc1)c1ccc(Cl)cc1 (configuration not stated),inactive: 4.29 µM
16,O=C(O)C(Br)C(Br)C(=O)O (configuration not stated),inactive: > 100 µM
17,O=C(NCCCN1CCN(CCCNC(=O)Nc2cc(Cl)ccc2Cl)CC1)Nc1cc(Cl)ccc1Cl,inactive: > 100 µM
18,Cn1[nH]nn/c1=N\N=C\c1ccccc1,inactive: > 10 µM
19,O=C1CCCC2=C1CC1=C(CCCC1=O)N2c1ccccc1,inactive: > 100 µM
20,OCC(O)COc1c(Cl)ccc(Cl)c1Cl (configuration not stated),inactive: > 100 µM
21,c1ccc(CSc2ccccc2CN2CCN(Cc3ccccc3SCc3ccccc3)CCN(Cc3ccccc3SCc3ccccc3)CC2)cc1,inactive: 1.82 µM
22,CCOC(=O)CCC(=O)C1c2cccc(O)c2C(=O)c2c(O)cccc21,inactive: 1.36 µM
23,O=C(CO[N+](=O)[O-])OCC(=O)c1ccccc1,inactive: > 100 µM

row,SMILES,GI50
1,CN(C)c1ccc(C(c2ccc(Cl)cc2)c2ccc(N(C)C)cc2)cc1,inactive: > 100 µM
2,COc1ccc(/C=C\c2cc(OC)c(OC)c(OC)c2)cc1OC(=O)C(N)CCC(=O)O (configuration not stated),active: 0.000518 µM
3,O=c1/c(=C/c2ccc(Cl)cc2Cl)sc2nc3ccccc3n12,inactive: > 100 µM
4,CC(C)(C)OC(=O)[C@@H]1ON2O[C@H](OC3CCCC3(c3ccccc3)c3ccccc3)C[C@H]3OC(=O)[C@@H]1[C@H]32 (some centres not stated),inactive: > 100 µM
5,N/C(=N\O)N/N=C/c1cc(I)cc(I)c1O,inactive: 46.5 µM
6,O=C(Nc1ccccc1-c1nn(C(=S)Nc2ccccc2)c(=S)n(C(=S)Nc2ccccc2)c1=O)C(F)(F)F,inactive: 24.1 µM
7,COC(=O)[C@@H](NC1(c2ccccc2)c2ccccc2-c2ccccc21)[C@H](OC(=O)[C@H]1CCCN1S(=O)(=O)c1ccccc1)C(=O)OC,inactive: > 100 µM
8,Clc1ccc(C[P+](c2ccccc2)(c2ccccc2)c2ccccc2)c(Cl)c1,inactive: 6.46 µM
9,CC(/C=N/N(C)C1=NCCCN1)=N/N(C)C1=NCCCN1,inactive: > 100 µM
10,Cc1nc2c(o1)/C(=N\c1ccccc1)c1nc(C)oc1/C2=N/c1ccccc1,inactive: 28.5 µM
11,N#CCCN(CCC#N)c1ccc(/C=C2\N=C(c3ccccc3)N(c3ccc(Cl)cc3)C2=O)cc1,inactive: 65.6 µM
12,O=C1OC[C@@H]2[C@@H](O)CCCCCN12,inactive: > 100 µM
13,C1=N\CCN2CCN(CC/N=C\c3ccccc3OCc3cccc(n3)COc3ccccc3/1)CC2,inactive: > 50 µM
14,Clc1ccc(C2Nc3ccccc3C3=NCCN32)cc1 (configuration not stated),inactive: 17.3 µM
15,O=C1NC(S(=O)(=O)O)=NNC12c1ccccc1-c1ccccc12,inactive: > 10 µM
16,COc1ccc2nc3c(C(=O)NCCN(C)C)cccc3nc2c1,inactive: 5.71 µM
17,CCN(CC)C(=O)CCn1ccc(=O)[nH]c1=O,inactive: > 100 µM
18,O=[N+]([O-])C(=C(NCc1ccccc1)NCc1ccccc1)C(Cl)=C(Cl)Cl,inactive: > 100 µM
19,c1ccc(NC[Si]23OCCN(CCO2)CCO3)cc1,inactive: > 100 µM
20,CCOc1ccc(NC(=O)CC#N)cc1,inactive: > 100 µM
21,COc1c(O)cc2c(c1O)C(=O)C1=C(CCCC1)C2=O,inactive: 23.9 µM
22,COc1nc(N)nc2c1ncn2C1CC(O)C(CO)O1 (configuration not stated),inactive: > 100 µM
23,COc1ccc(OC)c(N2CC(N)C2=O)c1 (configuration not stated),inactive: > 100 µM

row,SMILES,GI50
1,CC/C(CC(=O)CCC(=O)Nc1ccccc1[N+](=O)[O-])=N/NC(=O)C[n+]1ccccc1,inactive: > 100 µM
2,CN(Cc1ccccc1)C1(N(C)Cc2ccccc2)CC1,inactive: > 100 µM
3,CC(CO)CCNc1ncnc2c1ncn2CCC(=O)O (configuration not stated),inactive: > 100 µM
4,CNC1C(O)C(OC2C(N)CC(N)C(OC3OC(CN)=CCC3N)C2O)OCC1(C)O (configuration not stated),inactive: > 100 µM
5,COC(=O)[C@H](CCSC)NC(=O)c1ccc(CNC(=O)/C(C)=C/c2ccccc2)cc1,inactive: 22.1 µM
6,C[n+]1c(/C=C/c2ccc(O)c3ncccc23)[se]c2ccccc21,inactive: 6.44 µM
7,Nc1ccccc1C(=O)CCc1c[nH]c2ccccc12,inactive: 76.7 µM
8,COc1ccc(/C(C)=N/NC(=O)c2ccncc2)c(OC)c1,inactive: > 10 µM
9,Nc1nc(-c2ccccc2)cc(-c2ccc(F)cc2)c1-c1ccc(Cl)cc1,inactive: > 100 µM
10,CN(C)/C=N/c1nc2c(ncn2C2OC(CO)C(O)C2O)c(=O)[nH]1 (configuration not stated),inactive: > 100 µM
11,C=C1CC(c2ccc(OCCCN3C(=O)c4ccccc4C3=O)cc2)OC1=O (configuration not stated),inactive: 16.8 µM
12,C/C1=C\[C@H](C)C[C@H](C)OC(=O)C[C@H](c2ccc(O)cc2)NC(=O)[C@H](Cc2ccc(O)c(I)c2)N(C)C(=O)[C@H](C)NC(=O)[C@@H](C)C1,active: 0.189 µM
13,CCCCCC(=O)OCCOCCOCCOCCOCCOCc1ccccc1,inactive: > 100 µM
14,O=C(CSc1nnc[nH]1)C[P+](c1ccccc1)(c1ccccc1)c1ccccc1,inactive: > 100 µM
15,O=C(c1ccccc1)N1CCN(C(=S)NC2CCCCC2)C1=S,inactive: 21.6 µM
16,CCOC(=O)C(C(=O)OCC)S(C)(=O)=O,inactive: > 100 µM
17,COc1cccc2c1C(=O)c1c(O)c3c(c(O)c1C2=O)CC(O)(C(O)CO)CC3OC1CC2C(OC3COCC(C#N)N32)C(C)O1 (configuration not stated),active: < 0.01 µM
18,C[C@H](CCC1SC1(C)C)C1CCC2(C)C3=C(CC[C@]12C)[C@@]1(C)CC[C@H](O)C(C)(C)C1CC3 (some centres not stated),inactive: > 100 µM
19,O=C1CC(c2ccccc2Cl)Oc2ccccc21 (configuration not stated),inactive: > 100 µM
20,N#C/C(=C\c1cc(Br)c(O)c(Br)c1)c1cccnc1,inactive: 42.5 µM
21,COc1ccc2nc3ccccc3c(NCCCCCCN(CCCl)CCCl)c2c1,active: 0.167 µM
22,COc1ccc(C(O)c2cc(OC)c(OC)c(OC)c2)cc1 (configuration not stated),inactive: 41.4 µM
23,CCOC(=O)c1csc(-c2cn(C)c3c2C(=O)C(OC)=CC3=O)n1,inactive: 29 µM
